# In PMC4336329 (PLoS ONE, 2015):
# Screen size: about 310,000 compounds; about 2,200 (0.71%) showed an effect of 50% or more. Effects have a minus sign here. The list shows a part of the results.
# Target: human ether-à-go-go-related gene (hERG) potassium channel (human, UniProt Q12809)
# Experiment: primary screen, population patch clamp on CHO cells stably expressing hERG
# Chain of human ether-à-go-go-related gene (hERG) potassium channel (Q12809 whole entry, looked up): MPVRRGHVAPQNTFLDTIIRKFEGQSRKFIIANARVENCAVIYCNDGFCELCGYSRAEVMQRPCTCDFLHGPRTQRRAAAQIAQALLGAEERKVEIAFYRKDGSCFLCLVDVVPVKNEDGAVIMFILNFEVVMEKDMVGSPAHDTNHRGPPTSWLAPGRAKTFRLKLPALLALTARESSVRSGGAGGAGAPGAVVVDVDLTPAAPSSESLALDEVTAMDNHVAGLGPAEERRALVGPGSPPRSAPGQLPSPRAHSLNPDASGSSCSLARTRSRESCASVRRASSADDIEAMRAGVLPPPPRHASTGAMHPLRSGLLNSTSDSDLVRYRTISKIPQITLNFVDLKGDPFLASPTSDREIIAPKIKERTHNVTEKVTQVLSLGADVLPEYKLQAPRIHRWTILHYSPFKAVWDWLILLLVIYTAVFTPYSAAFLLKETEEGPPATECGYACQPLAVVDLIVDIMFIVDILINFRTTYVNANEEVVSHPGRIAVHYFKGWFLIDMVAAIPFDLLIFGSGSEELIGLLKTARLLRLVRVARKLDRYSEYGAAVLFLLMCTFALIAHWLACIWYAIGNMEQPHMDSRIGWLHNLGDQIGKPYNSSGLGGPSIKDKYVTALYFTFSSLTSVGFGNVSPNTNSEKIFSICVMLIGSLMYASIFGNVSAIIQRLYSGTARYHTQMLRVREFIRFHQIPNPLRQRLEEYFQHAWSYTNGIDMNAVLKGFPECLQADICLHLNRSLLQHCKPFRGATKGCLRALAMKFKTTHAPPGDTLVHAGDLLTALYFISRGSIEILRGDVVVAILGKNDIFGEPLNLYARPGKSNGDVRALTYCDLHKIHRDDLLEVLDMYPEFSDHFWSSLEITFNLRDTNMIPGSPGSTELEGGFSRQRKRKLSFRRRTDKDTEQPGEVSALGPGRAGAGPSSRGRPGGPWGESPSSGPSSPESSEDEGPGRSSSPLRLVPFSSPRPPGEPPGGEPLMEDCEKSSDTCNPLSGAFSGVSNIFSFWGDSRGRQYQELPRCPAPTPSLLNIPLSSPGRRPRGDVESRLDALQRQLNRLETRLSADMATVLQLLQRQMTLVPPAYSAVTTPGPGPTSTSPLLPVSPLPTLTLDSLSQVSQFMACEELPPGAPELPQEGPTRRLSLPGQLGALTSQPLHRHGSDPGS
row,SMILES,"hERG current change (%, negative = inhibition) at 1uM"
1,O=C(NCc1nnnn1-c1ccc(F)c(F)c1)c1ccc2ccccc2c1,0.216%
2,COc1ccc(-n2c(=O)c3c4c(sc3n(CC(=O)Nc3cc(C)[nH]n3)c2=O)CCC4)c(OC)c1,13.7%
3,Cn1c(N)c(C(=O)COC(=O)CCC(=O)c2ccc(F)cc2)c(=O)n(C)c1=O,5.29%
4,CCCC(=O)N(Cc1cc(=O)[nH]c2ccccc12)c1ccccc1OC,-3.28%
5,CCNc1ccccc(-c2ccc3ccccc3n2)c1=O,12%
6,COc1ccc2oc(C(=O)OCC(=O)N3CC(C)OC(C)C3)c(C)c2c1 (stereo not shown),7.82%
7,O=C(Nc1cccc2ccccc12)N1CCC2(CC1)OCCO2,17.9%
8,COc1ccc(/C(C)=N/Nc2cc(C(F)(F)F)ccc2Cl)c(OC)c1,4.07%
9,O=c1c2c3c(sc2nc2n1CCCC2)CCC3,3.46%
10,CC(C)Cc1nccs1,17.5%
11,CSc1nc(C=Nc2ccccc2Cl)c(O)n1Cc1cccc(Cl)c1,11.9%
12,CCOC(=O)c1cn(Cc2ccc(C)cc2)nn1,16.4%
13,CO/N=C/c1c(C(=O)OC)nn(-c2ccccc2)c1Cl,17.4%
14,Cc1ccccc1N=Cc1cc2c(cc1O)OC(N)=C(C#N)C2c1ccccc1 (stereo not shown),6.74%
15,O=C(NC(=S)N1CCOCC1)C12CC3CCC(CC(C3)C1)C2,7.21%
16,Cc1ccccc1NC(=O)C(=O)NCCc1ccccc1,3.31%
17,COc1ccc(CN2CCN(C(=O)CCC(=O)Nc3nnc(C(C)C)s3)CC2)cc1F,5.48%
18,COc1cc2ncnc(NCc3ccccc3F)c2cc1OC,10.8%
19,Cl.O=C(NCCCn1ccnc1)C1c2ccccc2Oc2ccccc21,0.132%
20,CCC(C)(C)n1nnnc1C(c1ccccc1)N1CCc2ccccc2C1 (stereo not shown),-3.33%

row,SMILES,"hERG current change (%, negative = inhibition) at 1uM"
1,CSc1nc2c(c(=O)[nH]1)C(c1cccs1)C1=C(CCCC1=O)N2 (stereo not shown),11.1%
2,CCn1cc(C(=O)NCCCN2CC(C)CC(C)C2)c(=O)c2cc(S(=O)(=O)N(C)C)ccc21 (stereo not shown),-17.3%
3,O=C(CN1CCOCC1)Nc1ccccc1F,7.24%
4,O=C(O)c1ccccc1-c1ccccc1C(=O)Nc1cccc(Br)c1,11.1%
5,Br.Cn1nc(-c2ccc(OCC(=O)N3CCN(Cc4ccccc4)CC3)cc2)c2ccccc2c1=O,-5.23%
6,CCN1C(=O)C(O)(CC(=O)C(C)(C)C)c2cc(Br)ccc21 (stereo not shown),5.68%
7,CCN(CC)S(=O)(=O)c1ccc(NN=c2c(=O)c3ccccc3c2=O)cc1,1.52%
8,CC(C)(C)c1cc(C(=O)N/N=C/c2ccccn2)n[nH]1,9.46%
9,O=C(CSc1cccc[n+]1[O-])C12CC3CC(CC(C3)C1)C2,6.16%
10,CC(C)C[C@@H](COc1ccccc1)N1CCN(CC(C)C)CCC1=O,-21.2%
11,O=c1c2[nH]c3ccc(F)cc3c2ncn1CCN1CCOCC1,-15.2%
12,COc1cccc(C(=O)N2CCSC2=S)c1,-4.5%
13,COc1cc(SC)ccc1C(=O)OC(C)C(=O)Nc1ccc(NC(C)=O)cc1 (stereo not shown),8.79%
14,NC(=O)CC(NC(=O)c1ccc(Br)cc1)c1ccc(NC2CCCCCCC2)c([N+](=O)[O-])c1 (stereo not shown),10.7%
15,Cc1ccc(-c2nnc(N3CCCCC3)c3ccccc23)cc1S(=O)(=O)NCC1CCCO1 (stereo not shown),8.28%
16,CCN(c1ccccc1)S(=O)(=O)c1ccc(Cl)c(C(=O)NCc2ccco2)c1,-3.11%
17,COc1ccc(-c2cc3nc(C)c(CCC(=O)N4CCN(c5ccccn5)CC4)c(C)n3n2)c(OC)c1,4.23%
18,CN1CCC(OC(=O)COc2ccccc2)CC1.Cl,17.3%
19,Fc1ccc(-n2c(-c3ccco3)n[nH]c2=S)cc1,13.6%
20,Cc1ccc(OCC(=O)N/N=C/c2ccco2)cc1,0.843%

row,SMILES,"hERG current change (%, negative = inhibition) at 1uM"
1,CN(C)C(=O)CN1c2cccc3cccc(c23)S1(=O)=O,12.7%
2,Cc1ccccc1NC(=O)NCC1CCN(c2ccc(S(=O)(=O)N3CCOCC3)cc2)CC1,8.85%
3,COc1ccc(CCNC2=CC(=O)N(c3ccc(F)cc3)C2=O)cc1,19.1%
4,Cc1cccn2c(=O)c3cc(C(=O)NCCCOC(C)C)sc3nc12,9.15%
5,COc1ccc(/C=C2\N=C3CCCCCN3C2=O)cc1,14%
6,CCOc1ccc(C(C)=O)cc1CSc1nnc(N)s1,12.6%
7,Cc1ccc(C)c(N2CCN(CCCNC(=O)CCn3c(=O)c4cccn4c4cccnc43)CC2)c1,-44.1%
8,Cn1ncc(N=Cc2ccc([N+](=O)[O-])cc2)c1C(=O)N1CCOCC1,3.23%
9,Cc1[nH]nc(SCC(=O)Nc2cccc(O)c2)c1[N+](=O)[O-],13.7%
10,O=C(NC(=O)c1cccc(Cl)c1)OC[C@@H]1CCCN2CCCCC12 (stereo partly shown),-49.6%
11,C/C(=N\N(c1ccccc1)c1ccccc1)c1ccco1,5.01%
12,Cn1nc(C(F)(F)F)cc1C(=O)NC1CCCCCC1,14.2%
13,COc1cccc(N/C=C(\C#N)c2ccc(OCCCF)cc2)c1,16.1%
14,Cc1ccsc1CN(C)Cc1nc(C2CC2)no1,10.8%
15,Br.COc1ccc2c3c1O[C@H]1C[C@@H](O)C=C[C@@]31CCN(C)C2,10.4%
16,Cc1cccc(OCCOc2ccc(/C=N/NC(=O)Cc3nnc(N)s3)cc2)c1,8.08%
17,NC1=NC(c2ccc(Cl)cc2)C(C(=O)c2ccccc2)N1 (stereo not shown),-0.776%
18,CCOc1ccc(/C=C\c2nc(O)c([N+](=O)[O-])c(=O)[nH]2)cc1OCC,12.2%
